Among the data in PMC7467691, “Meiotic chromosome synapsis depends on multivalent SYCE1-SIX6OS1 interactions that are disrupted in cases of human infertility” (Science Advances, 2020) are binding values, retold here.

The target in assay [1] is T1, SIX6OS1 1–22, yeast two-hybrid fusion (human) (UniProt Q8N1H7).
T1 sequence: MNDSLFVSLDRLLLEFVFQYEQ
Briefly: two-hybrid; Matchmaker Gold; pGBKT7 in Y187 mated with pGADT7 in Y2H gold; SD/-Trp/-Leu/-Ade/-His with X-alpha-gal, growth of blue colonies, 5 days at 30°C.

Assay [2] has as its target T2, full-length SIX6OS1, yeast two-hybrid fusion (human) (UniProt Q8N1H7).
T2 sequence: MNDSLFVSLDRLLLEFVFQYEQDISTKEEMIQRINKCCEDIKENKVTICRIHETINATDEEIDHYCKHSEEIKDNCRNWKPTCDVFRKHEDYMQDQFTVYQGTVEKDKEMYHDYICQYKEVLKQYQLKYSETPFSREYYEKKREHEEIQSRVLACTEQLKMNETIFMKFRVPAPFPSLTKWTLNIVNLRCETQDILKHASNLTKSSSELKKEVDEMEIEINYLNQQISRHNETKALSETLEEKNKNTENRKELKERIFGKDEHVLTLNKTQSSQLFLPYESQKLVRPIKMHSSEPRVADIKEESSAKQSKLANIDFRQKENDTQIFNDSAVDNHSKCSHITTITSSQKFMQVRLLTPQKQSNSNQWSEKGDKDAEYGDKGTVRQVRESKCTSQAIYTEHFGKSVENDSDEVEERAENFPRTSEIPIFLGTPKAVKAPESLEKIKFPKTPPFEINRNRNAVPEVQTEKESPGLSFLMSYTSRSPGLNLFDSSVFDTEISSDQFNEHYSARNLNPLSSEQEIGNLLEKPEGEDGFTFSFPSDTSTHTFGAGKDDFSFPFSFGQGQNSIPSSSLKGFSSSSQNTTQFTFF
The assay is described as above.

The target in assay [3] is T3, full-length SIX6OS1 Δ10–21, yeast two-hybrid fusion (human) (UniProt Q8N1H7).
T3 sequence: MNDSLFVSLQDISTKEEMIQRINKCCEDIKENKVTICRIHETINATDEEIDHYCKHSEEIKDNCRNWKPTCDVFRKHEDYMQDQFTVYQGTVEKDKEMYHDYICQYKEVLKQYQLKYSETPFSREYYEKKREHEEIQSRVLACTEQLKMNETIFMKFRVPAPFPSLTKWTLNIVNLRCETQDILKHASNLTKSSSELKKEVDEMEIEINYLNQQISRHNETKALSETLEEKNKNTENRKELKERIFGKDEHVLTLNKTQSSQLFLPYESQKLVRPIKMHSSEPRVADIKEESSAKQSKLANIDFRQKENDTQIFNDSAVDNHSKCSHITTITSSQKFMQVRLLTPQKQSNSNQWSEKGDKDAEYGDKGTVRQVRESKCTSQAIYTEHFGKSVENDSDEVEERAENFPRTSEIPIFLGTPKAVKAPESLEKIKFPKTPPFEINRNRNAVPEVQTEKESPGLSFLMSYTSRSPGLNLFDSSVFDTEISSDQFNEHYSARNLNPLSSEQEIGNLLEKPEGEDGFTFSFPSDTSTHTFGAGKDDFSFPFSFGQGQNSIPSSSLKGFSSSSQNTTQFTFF
The description is as above.

For assay [4], the target named is T4, SIX6OS1 1–75, yeast two-hybrid fusion (human) (UniProt Q8N1H7).
T4 sequence: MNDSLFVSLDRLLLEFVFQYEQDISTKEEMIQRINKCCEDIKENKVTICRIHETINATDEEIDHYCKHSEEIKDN
The assay is described as above.

Assay [5] deals with T5, SIX6OS1 1–262 Δ10–21, yeast two-hybrid fusion (human) (UniProt Q8N1H7).
T5 sequence: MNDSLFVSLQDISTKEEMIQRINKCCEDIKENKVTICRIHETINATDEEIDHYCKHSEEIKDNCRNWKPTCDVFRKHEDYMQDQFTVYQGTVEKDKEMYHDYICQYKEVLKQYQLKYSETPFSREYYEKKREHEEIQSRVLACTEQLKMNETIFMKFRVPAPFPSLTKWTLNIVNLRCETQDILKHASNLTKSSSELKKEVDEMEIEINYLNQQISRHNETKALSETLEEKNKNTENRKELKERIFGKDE
Described as above.

The target of assay [6] is T6, SIX6OS1 1–262, yeast two-hybrid fusion (human) (UniProt Q8N1H7).
T6 sequence: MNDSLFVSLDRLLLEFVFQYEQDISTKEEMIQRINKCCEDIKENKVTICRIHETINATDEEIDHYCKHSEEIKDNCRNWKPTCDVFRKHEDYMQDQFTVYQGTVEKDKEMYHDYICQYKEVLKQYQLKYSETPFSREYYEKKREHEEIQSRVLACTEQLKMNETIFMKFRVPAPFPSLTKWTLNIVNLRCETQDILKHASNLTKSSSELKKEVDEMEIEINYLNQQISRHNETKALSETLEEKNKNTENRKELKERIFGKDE
The description is as above.

The target of assay [7] is T7, MBP-SIX6OS1N (MBP-SIX6OS1 1–67) (human) (UniProt Q8N1H7).
T7 sequence: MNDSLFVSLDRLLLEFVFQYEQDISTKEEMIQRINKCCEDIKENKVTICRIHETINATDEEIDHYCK
Description: pull-down; amylose pulldown following bacterial coexpression of MBP-SIX6OS1 constructs with His-SYCE1core; MBP fusion held on amylose.

Assay [8] deals with T7, MBP-SIX6OS1N (MBP-SIX6OS1 1–67) (human). Description: SEC-MALS; 5 to 20 mg/ml in 20 mM tris (pH 8.0), 150 mM KCl, 2 mM DTT; Superdex 200 Increase 10/300 GL at 0.5 ml/min; both purified. A general note: In gel filtration, larger molecules generally elute earlier.
Assay [9] has as its target T8, SYCE1 (mouse, construct of the co-immunoprecipitation with SYCE3, Fig. 4D) (mouse) (UniProt Q9D495).
T8 sequence: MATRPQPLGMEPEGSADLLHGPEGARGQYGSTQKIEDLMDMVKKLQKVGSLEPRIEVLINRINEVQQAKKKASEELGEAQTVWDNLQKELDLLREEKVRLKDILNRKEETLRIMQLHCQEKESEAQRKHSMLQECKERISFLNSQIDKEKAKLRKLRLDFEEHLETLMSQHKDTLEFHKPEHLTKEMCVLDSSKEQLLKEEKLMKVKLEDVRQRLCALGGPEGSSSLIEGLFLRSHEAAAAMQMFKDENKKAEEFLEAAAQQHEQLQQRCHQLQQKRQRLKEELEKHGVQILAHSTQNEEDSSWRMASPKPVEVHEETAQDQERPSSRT
Briefly: co-IP; HEK293T cells cotransfected; whole-cell extracts; immunoprecipitation with anti-Flag, anti-EGFP or anti-Myc antibodies, mouse IgG as negative control; protein G Sepharose; immunoblot. On the technique in general: A western blot detects proteins with antibodies after separation by electrophoresis.

Assay [10] addresses T9, SIX6OS1 Δ10–21 (mouse) (mouse) (UniProt Q9CTN5).
T9 sequence: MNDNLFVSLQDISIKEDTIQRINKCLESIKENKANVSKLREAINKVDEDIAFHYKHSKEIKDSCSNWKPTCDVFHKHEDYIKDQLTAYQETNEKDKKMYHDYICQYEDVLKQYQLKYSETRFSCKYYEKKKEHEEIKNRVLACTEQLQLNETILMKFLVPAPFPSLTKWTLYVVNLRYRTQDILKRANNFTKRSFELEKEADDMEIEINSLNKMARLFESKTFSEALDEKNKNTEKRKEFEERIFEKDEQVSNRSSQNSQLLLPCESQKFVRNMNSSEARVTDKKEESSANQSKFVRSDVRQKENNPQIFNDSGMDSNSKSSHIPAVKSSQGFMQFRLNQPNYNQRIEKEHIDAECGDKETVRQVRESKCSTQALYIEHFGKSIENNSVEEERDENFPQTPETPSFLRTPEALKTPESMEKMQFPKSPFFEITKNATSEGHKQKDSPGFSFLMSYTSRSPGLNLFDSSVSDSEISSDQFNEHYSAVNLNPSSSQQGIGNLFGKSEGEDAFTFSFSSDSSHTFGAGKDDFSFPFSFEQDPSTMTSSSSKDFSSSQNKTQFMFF
The description is as above.

A further assay addresses T10, Flag-mSYCE1 (mouse) (UniProt Q9D495).
T10 sequence: T8 sequence
Described as above.

Results are given in words; binding and its absence hold for the method and conditions named. For some assays here: Binding seen in cells or lysates may run through a third protein. Some binding calls cover weakened binding; strength is not graded here. For some assays here: Where a sequence is shown, tags or fusion partners need not be part of it.

B1: SYCE1core (25–179), yeast two-hybrid fusion (domain or fragment, UniProt Q8N0S2 25-179)
chain: GQDTSSQKIEDLMEMVQKLQKVGSLEPRVEVLINRINEVQQAKKKANKDLGEARTICEALQKELDSLHGEKVHLKEILSKKQETLRILRLHCQEKESEAHRKHTMLQECKERISALNLQIEEEKNKQRQLRLAFEEQLEDLMGQHKDLWDFHMPE
As for B1, the binding result was “no binding” in assay [1]; “binds” in [2]; “no binding” in assay [3]; “binds” in assay [4]; “no binding” in assay [5]; “binds” in assay [6].

B2: His-SYCE1core (domain or fragment, UniProt Q8N0S2 25-179)
chain: B1 chain
Consider B2, for which the binding entry in assay [7] was “binds”.

B3: MBP-SIX6OS1N (MBP-SIX6OS1 1–67) (domain or fragment, UniProt Q8N1H7 1-67)
chain: T7 sequence
As to B3, the binding entry in assay [8] is on record as “no binding (tested: 5 to 20 mg/ml)”.

B4: SYCE3 (mouse) (protein, UniProt B5KM66 1-88)
chain: MADSDPGERSYDNMLKMLSDLNKDLEKLLEEMEKISVQATWMAYDMVVMRTNPTLAESMRRLEDAFLNCKEEMEKNWQELLTETKRKQ
Take B4: the binding result in assay [9] is reported as “binds weakly”.

B5: Flag-mSYCE1 (protein, UniProt Q9D495 1-329)
chain: T8 sequence
For the molecule B5, the binding entry in assay [10] is recorded as “binds”.

B6: GFP-mSIX6OS1 (protein, UniProt Q9CTN5 1-574)
chain: MNDNLFVSLDRLLLEFVFQYEQDISIKEDTIQRINKCLESIKENKANVSKLREAINKVDEDIAFHYKHSKEIKDSCSNWKPTCDVFHKHEDYIKDQLTAYQETNEKDKKMYHDYICQYEDVLKQYQLKYSETRFSCKYYEKKKEHEEIKNRVLACTEQLQLNETILMKFLVPAPFPSLTKWTLYVVNLRYRTQDILKRANNFTKRSFELEKEADDMEIEINSLNKMARLFESKTFSEALDEKNKNTEKRKEFEERIFEKDEQVSNRSSQNSQLLLPCESQKFVRNMNSSEARVTDKKEESSANQSKFVRSDVRQKENNPQIFNDSGMDSNSKSSHIPAVKSSQGFMQFRLNQPNYNQRIEKEHIDAECGDKETVRQVRESKCSTQALYIEHFGKSIENNSVEEERDENFPQTPETPSFLRTPEALKTPESMEKMQFPKSPFFEITKNATSEGHKQKDSPGFSFLMSYTSRSPGLNLFDSSVSDSEISSDQFNEHYSAVNLNPSSSQQGIGNLFGKSEGEDAFTFSFSSDSSHTFGAGKDDFSFPFSFEQDPSTMTSSSSKDFSSSQNKTQFMFF
On to B6, for which the binding result with Flag-mSYCE1 (mouse) is “binds”.
